Test results from PMC6151265.
No constants are given. Whether binding was seen depends on the method and setting. For part of these data: Binding seen in cells or lysates may run through a third protein. Some entries that bind do so weakly or less than the wild type.

T1: rabaptin-5 (endogenous, melanocytes) (mouse (endogenous in melan-Ink melanocytes)) (UniProt O35551)
T1 sequence: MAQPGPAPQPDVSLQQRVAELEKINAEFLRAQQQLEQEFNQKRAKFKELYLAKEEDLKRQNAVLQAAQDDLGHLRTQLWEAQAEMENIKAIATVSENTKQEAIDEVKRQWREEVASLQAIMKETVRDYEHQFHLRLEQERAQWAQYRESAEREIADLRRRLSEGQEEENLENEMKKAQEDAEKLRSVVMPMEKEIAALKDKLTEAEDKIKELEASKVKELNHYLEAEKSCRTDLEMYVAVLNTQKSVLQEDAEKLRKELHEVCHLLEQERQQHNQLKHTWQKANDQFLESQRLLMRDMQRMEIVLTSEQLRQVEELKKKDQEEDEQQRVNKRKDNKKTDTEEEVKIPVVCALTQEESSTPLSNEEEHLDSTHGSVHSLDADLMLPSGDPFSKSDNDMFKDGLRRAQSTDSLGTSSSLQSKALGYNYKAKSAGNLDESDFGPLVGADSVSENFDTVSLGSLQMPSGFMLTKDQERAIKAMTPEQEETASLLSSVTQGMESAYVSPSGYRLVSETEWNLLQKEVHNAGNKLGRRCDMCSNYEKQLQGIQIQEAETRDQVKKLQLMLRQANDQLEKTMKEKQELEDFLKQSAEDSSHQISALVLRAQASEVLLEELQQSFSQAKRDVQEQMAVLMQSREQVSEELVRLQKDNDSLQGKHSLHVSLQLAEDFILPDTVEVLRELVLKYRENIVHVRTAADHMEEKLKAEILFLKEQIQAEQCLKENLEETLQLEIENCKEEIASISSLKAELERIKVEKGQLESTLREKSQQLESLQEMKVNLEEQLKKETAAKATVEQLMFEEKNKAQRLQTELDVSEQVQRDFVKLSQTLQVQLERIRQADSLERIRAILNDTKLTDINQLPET

T2: hPMEL^623-668 (human) (UniProt P40967)
T2 sequence: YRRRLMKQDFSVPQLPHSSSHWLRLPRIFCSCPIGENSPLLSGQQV

T3: Rab4 (endogenous, melanocytes) (mouse (endogenous in melan-Ink melanocytes)) (UniProt P56371)
T3 sequence: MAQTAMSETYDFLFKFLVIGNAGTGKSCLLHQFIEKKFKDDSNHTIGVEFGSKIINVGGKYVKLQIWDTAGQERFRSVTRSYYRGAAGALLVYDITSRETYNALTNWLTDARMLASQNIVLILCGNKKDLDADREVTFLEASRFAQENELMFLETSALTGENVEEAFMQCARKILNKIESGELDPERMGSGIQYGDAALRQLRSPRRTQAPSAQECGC


Columns and labels:
[1] = biological target: T1, rabaptin-5 (endogenous, melanocytes) (mouse (endogenous in melan-Ink melanocytes)); test: co-IP; endogenous rabaptin-5 from melan-Ink melanocyte lysate, anti-rabaptin-5 antibody and Protein G–Sepharose 4B beads overnight at 4°C; immunoblotting
hPMEL^623-668 (human) = biological target: T2, hPMEL^623-668 (human); test: two-hybrid; Y2HGold yeast; cargo tails in pGBKT7 against AP-3 or AP-1 subunits; growth on −His (+2 or 10 mM 3AT) plates, 3–5 days at 30°C
[2] = biological target: T3, Rab4 (endogenous, melanocytes) (mouse (endogenous in melan-Ink melanocytes)); test: co-IP; endogenous Rab4 from melan-Ink melanocyte lysate, anti-Rab4 antibody and Protein G–Sepharose 4B beads overnight at 4°C; immunoblotting

Row | binding [1] | binding (hPMEL^623-668 (human)) | Binder | also measured
1 | no binding | – | rabenosyn-5 (endogenous, melanocytes) (protein, UniProt Q80Y56 1-783) MASLDDPGEVREGFLCPLCLKDLQSFYQLQSHYEEEHLEDRDVKGQIKNLVQKARKAKNKLLKREGDDRVEPGTQGYESFSYGGVDPYMWEPQELGAMRSHLSDFKKHRAARIDHYVVEVNKLIIRLEKLTAFDRTNTETSKIRAIEKSVVPWVNDQDVPFCPDCGNKFSIRNRRHHCRLCGSIMCKKCMELIGLPLAHKLTSASKDSLSTHTSPSQSPNSVHGSRRGSISSMSSVSSVLDEKDDDRIRCCTHCKDKLLKREQQMDEKEHTPDIVKLYEKLRLCMEKVDQKAPEYIRMAASLNAGETTYNLEHANDLRVEVQKVYELIDALSKKILTLGLNQDPSPHPNTLRLQRMIRYSATLFVQEKLLGLMSLPTKEQFEELKKKRKQDLEQKRTVERQAALESRRKLEERQSGLASHTANGDVRSLRGIPPPLRKAEGWLPLSEGQGQSEDPDPLLQQIYNITSFIRQAKAAGRTDEVRTLQENLRQLQDEYDQQQTEKAIELSRKQAEEEELQREQLQMLRKRELEREQEQFLAASLQTRTRVLELREVIPFQLEASRGPHIDLSYSLDQDSSPVQSSTAPDILTPGSALAPMHLWSGPPALGQETLPQSTMSQQSDKASLNPFDEDDLSSPTEGAISPAAVEAFLGPPAAVTKEYNPFEEDAEEEEVAELGAGNPFTDPDSPAPNPFDEDDGPRPASPAAPGNPFEECPSTNPFEVDSDSGMEAEEHIEEELLLQQIDNIKAYIFDAKQCGRMDEVEVLTENLRELKCTLAKQKGAPN | –
2 | – | no binding | AP-3 β3A subunit (yeast two-hybrid) (protein, UniProt O00203 1-1094) MSSNSFPYNEQSGGGEATELGQEATSTISPSGAFGLFSSDLKKNEDLKQMLESNKDSAKLDAMKRIVGMIAKGKNASELFPAVVKNVASKNIEIKKLVYVYLVRYAEEQQDLALLSISTFQRALKDPNQLIRASALRVLSSIRVPIIVPIMMLAIKEASADLSPYVRKNAAHAIQKLYSLDPEQKEMLIEVIEKLLKDKSTLVAGSVVMAFEEVCPDRIDLIHKNYRKLCNLLVDVEEWGQVVIIHMLTRYARTQFVSPWKEGDELEDNGKNFYESDDDQKEKTDKKKKPYTMDPDHRLLIRNTKPLLQSRNAAVVMAVAQLYWHISPKSEAGIISKSLVRLLRSNREVQYIVLQNIATMSIQRKGMFEPYLKSFYVRSTDPTMIKTLKLEILTNLANEANISTLLREFQTYVKSQDKQFAAATIQTIGRCATNILEVTDTCLNGLVCLLSNRDEIVVAESVVVIKKLLQMQPAQHGEIIKHMAKLLDSITVPVARASILWLIGENCERVPKIAPDVLRKMAKSFTSEDDLVKLQILNLGAKLYLTNSKQTKLLTQYILNLGKYDQNYDIRDRTRFIRQLIVPNVKSGALSKYAKKIFLAQKPAPLLESPFKDRDHFQLGTLSHTLNIKATGYLELSNWPEVAPDPSVRNVEVIELAKEWTPAGKAKQENSAKKFYSESEEEEDSSDSSSDSESESGSESGEQGESGEEGDSNEDSSEDSSSEQDSESGRESGLENKRTAKRNSKAKGKSDSEDGEKENEKSKTSDSSNDESSSIEDSSSDSESESEPESESESRRVTKEKEKKTKQDRTPLTKDVSLLDLDDFNPVSTPVALPTPALSPSLMADLEGLHLSTSSSVISVSTPAFVPTKTHVLLHRMSGKGLAAHYFFPRQPCIFGDKMVSIQITLNNTTDRKIENIHIGEKKLPIGMKMHVFNPIDSLEPEGSITVSMGIDFCDSTQTASFQLCTKDDCFNVNIQPPVGELLLPVAMSEKDFKKEQGVLTGMNETSAVIIAAPQNFTPSVIFQKVVNVANVGAVPSGQDNIHRFAAKTVHSGSLMLVTVELKEGSTAQLIINTEKTVIGSVLLRELKPVLSQG | –
3 | – | no binding | AP-3 δ subunit (yeast two-hybrid) (protein, UniProt O14617 1-1153) MALKMVKGSIDRMFDKNLQDLVRGIRNHKEDEAKYISQCIDEIKQELKQDNIAVKANAVCKLTYLQMLGYDISWAAFNIIEVMSASKFTFKRIGYLAASQSFHEGTDVIMLTTNQIRKDLSSPSQYDTGVALTGLSCFVTPDLARDLANDIMTLMSHTKPYIRKKAVLIMYKVFLKYPESLRPAFPRLKEKLEDPDPGVQSAAVNVICELARRNPKNYLSLAPLFFKLMTSSTNNWVLIKIIKLFGALTPLEPRLGKKLIEPLTNLIHSTSAMSLLYECVNTVIAVLISLSSGMPNHSASIQLCVQKLRILIEDSDQNLKYLGLLAMSKILKTHPKSVQSHKDLILQCLDDKDESIRLRALDLLYGMVSKKNLMEIVKKLMTHVDKAEGTTYRDELLTKIIDICSQSNYQYITNFEWYISILVELTRLEGTRHGHLIAAQMLDVAIRVKAIRKFAVSQMSALLDSAHLLASSTQRNGICEVLYAAAWICGEFSEHLQEPHHTLEAMLRPRVTTLPGHIQAVYVQNVVKLYASILQQKEQAGEAEGAQAVTQLMVDRLPQFVQSADLEVQERASCILQLVKHIQKLQAKDVPVAEEVSALFAGELNPVAPKAQKKVPVPEGLDLDAWINEPLSDSESEDERPRAVFHEEEQRRPKHRPSEADEEELARRREARKQEQANNPFYIKSSPSPQKRYQDTPGVEHIPVVQIDLSVPLKVPGLPMSDQYVKLEEERRHRQKLEKDKRRKKRKEKEKKGKRRHSSLPTESDEDIAPAQQVDIVTEEMPENALPSDEDDKDPNDPYRALDIDLDKPLADSEKLPIQKHRNTETSKSPEKDVPMVEKKSKKPKKKEKKHKEKERDKEKKKEKEKKKSPKPKKKKHRKEKEERTKGKKKSKKQPPGSEEAAGEPVQNGAPEEEQLPPESSYSLLAENSYVKMTCDIRGSLQEDSQVTVAIVLENRSSSILKGMELSVLDSLNARMARPQGSSVHDGVPVPFQLPPGVSNEAQYVFTIQSIVMAQKLKGTLSFIAKNDEGATHEKLDFRLHFSCSSYLITTPCYSDAFAKLLESGDLSMSSIKVDGIRMSFQNLLAKICFHHHFSVVERVDSCASMYSRSIQGHHVCLLVKKGENSVSVDGKCSDSTLLSNLLEEMKATLAKC | –
4 | binds | – | Rab4 (endogenous, melanocytes) (protein, UniProt P56371 1-218) MAQTAMSETYDFLFKFLVIGNAGTGKSCLLHQFIEKKFKDDSNHTIGVEFGSKIINVGGKYVKLQIWDTAGQERFRSVTRSYYRGAAGALLVYDITSRETYNALTNWLTDARMLASQNIVLILCGNKKDLDADREVTFLEASRFAQENELMFLETSALTGENVEEAFMQCARKILNKIESGELDPERMGSGIQYGDAALRQLRSPRRTQAPSAQECGC | –
5 | – | – | KIF3B (endogenous, melanocytes) (protein, UniProt Q61771 1-747) MSKLKSSESVRVVVRCRPMNGKEKAASYDKVVDVDVKLGQVSVKNPKGTSHEMPKTFTFDAVYDWNAKQFELYDETFRPLVDSVLQGFNGTIFAYGQTGTGKTYTMEGVRGDPEKRGVIPNSFDHIFTHISRSQNQQYLVRASYLEIYQEEIRDLLSKDQTKRLELKERPDTGVYVKDLSSFVTKSVKEIEHVMNVGNQNRSVGATNMNEHSSRSHAIFVITIECSEVGLDGENHIRVGKLNLVDLAGSERQAKTGAQGERLKEATKINLSLSALGNVISALVDGKSTHIPYRDSKLTRLLQDSLGGNAKTVMVANVGPASYNVEETLTTLRYANRAKNIKNKPRVNEDPKDALLREFQEEIARLKAQLEKRSIGRRKRREKRREGGGSGGGGEEEEEEGEEGEEDGDDKDDYWREQQEKLEIEKRAIVEDHSLVAEEKMRLLKEKEKKMEDLRREKDAAEMLGAKIKAMESKLLVGGKNIVDHTNEQQKILEQKRQEIAEQKRREREIQQQMESRDEETLELKETYTSLQQEVDIKTKKLKKLFSKLQAVKAEIHDLQEEHIKERQELEQTQNELTRELKLKHLIIENFIPLEEKNKIMNRSFFDDEEDHWKLHPITRLENQQMMKRPVSAVGYKRPLSQHARMSMMIRPEPRYRAENIMLLELDMPSRTTRDYEGPAISPKVQAALDAALQDEDEIQVDASSFESTASRKPKARPKSGRKSGSSSSSSGNPASQFYPQSRGLVPK | binding [2]: binds
6 | no binding | – | Rabip4 (endogenous, melanocytes) (protein, UniProt Q8BIJ7 1-712) MAARGECRRAGQDSEPEPEREPESEPGPEPEPQAGLESGEAFEIVDRSQLPSPGELRSASRPRVADSWSAPILTLARRATGNLSASCGSALRAAAGLGDGGGGGERAASKGQMMEERANLMHMMKLSIKVLLQSALSLGRSLDADYAPLQQFFVVMEHCLKHGLKVKKSFIGQNKSFFGPLELVEKLCPEASDIATSVRNLPELKTAVGRGRAWLYLALMQKKLADYLKVLIDNKQLLSEFYEPEALMMEEEGMVIVGLLVGLNVLDANLCLKGEDLDSQVGVIDFSLCLKDAQDLDSGREHERITDVLDQKNYVEELNRHLSCTVGDLQTKIDGLEKTNSKLQEELSAATDRICSLQKEQQQLREQNEVIRERSEKSVEITKQDTKVELETYKQTRQGLDEMYSDVWKQLKEEKKVRLELEKELELQIGMKTEMEIAMKLLEKDTHEKQDTLVALRQQLEEVKAINLQMFHKVQSAESSLQQKNEAIASFEGKTTQVMSSMKQMEERLQQAERARQAAEERSHKLQQELSGRGSALQLQLSQLRDQCSGLEKELKSEKEQRQALQRELQREKDTSCLLQTELQQVEGLKKELRELQDEKAELRKVCEEQEQALQEMGLHLSQSKLKMEDIKEVNKALKGHTWLKDDEATHCKQCEKDFSISRRKHHCRNCGHIFCNTCSSNELALPSYPKPVRVCDSCHTLLLQRCSSTAS | –
